For this assay, the system named is SU5416/hypoxia/normoxia-exposed rats with PAH.

This is an account of results in patent publication US20120034164A1, “TRUNCATED CAR PEPTIDES AND METHODS AND COMPOSITIONS USING TRUNCATED CAR PEPTIDES” (Sanford-Burnham Medical Research Institute California, priority 2010, published 2012).

Take `O=S(=O)(c1cccc2cnccc12)N1CCCNCC1` [Fasudil, fasudil]: under “10 mg/kg of fasudil 30 minutes after cessation of tCAR infusion”, the “pulmonary-specific blood pressure effect” value is “still resulted in a sustained, pulmonary-specific effect”. This compound had an RVSP (Table 4, fasudil 10 mg/kg after cessation of CARK (tCAR) infusion, baseline 84.6) of 27.2 mmHg. For the setting “Table 4, fasudil 10 mg/kg after cessation of CARK (tCAR) infusion, baseline 140.6”, this compound registered an LVSP of 107.7 mmHg.
